# Measurements reported in the supplement of paper PMC8728848.
# The other results are listed elsewhere or left out.
# B1: MPA (Maclura pomifera), P18674 (protein)
# chain: GVTFDDGAYTGIREINFEYNSETAIGGLRVTYDLNGMPFVAEDHKSFITGFKPVKISLEFPSEYIVEVSGYVGKVEGYTVIRSLTFKTNKQTYGPYGVTNGTPFSLPIENGLIVGFKGSIGYWLDYFSIYLSL
# Legend:
# Experiment in all cases: glycan array binding signal (z-score within array); higher = stronger binding
# Details in all cases: glycan notation: IUPAC condensed, linker removed
# [1] = molecular target: Fuc(a1-3)GlcNAc
# Procedure, shortened: (§1)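 The Consortium for Functional Glycomics database supplied 3228 glycan arrays, of which those lacking an available protein sequence were dropped. The binding signal, a within-array Z-score, was averaged across arrays of the same protein sequence and across linkers. Negative scores can be read as non-binding.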
# [2] = molecular target: Fuc(a1-3)[Gal(b1-4)]Glc6S
# Procedure, shortened: as §1
# [3] = molecular target: Fuc(a1-3)[Gal(b1-4)]GlcNAc
# Procedure, shortened: as §1
# [4] = molecular target: Fuc(a1-3)[Gal(b1-4)]GlcNAc(b1-2)Man
# Procedure, shortened: as §1
# [5] = molecular target: Fuc(a1-3)[Gal(b1-4)]GlcNAc(b1-2)Man(a1-3)[Fuc(a1-3)[Gal(b1-4)]GlcNAc(b1-2)Man(a1-6)]Man(b1-4)GlcNAc(b1-4)GlcNAc
# Procedure, shortened: as §1
# [6] = molecular target: Fuc(a1-3)[Gal(b1-4)]GlcNAc(b1-2)Man(a1-3)[Fuc(a1-3)[Gal(b1-4)]GlcNAc(b1-2)Man(a1-6)]Man(b1-4)GlcNAc(b1-4)[Fuc(a1-6)]GlcNAc
# Procedure, shortened: as §1
# [7] = molecular target: Fuc(a1-3)[Gal(b1-4)]GlcNAc(b1-3)Gal(b1-3)[Fuc(a1-4)]GlcNAc
# Procedure, shortened: as §1
# [8] = molecular target: Fuc(a1-3)[Gal(b1-4)]GlcNAc(b1-3)Gal(b1-4)[Fuc(a1-3)]GlcNAc
# Procedure, shortened: as §1
# [9] = molecular target: Fuc(a1-3)[Gal(b1-4)]GlcNAc(b1-3)Gal(b1-4)[Fuc(a1-3)]GlcNAc(b1-3)Gal(b1-4)[Fuc(a1-3)]GlcNAc
# Procedure, shortened: as §1
# [10] = molecular target: Fuc(a1-3)[Gal(b1-4)]GlcNAc(b1-3)GalNAc
# Procedure, shortened: as §1
# [11] = molecular target: Fuc(a1-3)[Gal(b1-4)]GlcNAc(b1-6)GalNAc
# Procedure, shortened: as §1
# [12] = molecular target: Fuc(a1-3)[Gal(b1-4)]GlcNAc(b1-6)[Gal(b1-3)GlcNAc(b1-3)]Gal(b1-4)Glc
# Procedure, shortened: as §1
# [13] = molecular target: Fuc(a1-3)[Gal(b1-4)]GlcNAc6S
# Procedure, shortened: as §1
# [14] = molecular target: Fuc(a1-3)[Gal3S(b1-4)]Glc
# Procedure, shortened: as §1
# [15] = molecular target: Fuc(a1-3)[Gal3S(b1-4)]GlcNAc
# Procedure, shortened: as §1
# [16] = molecular target: Fuc(a1-3)[Gal3S(b1-4)]GlcNAc6S
# Procedure, shortened: as §1
# [17] = molecular target: Fuc(a1-3)[GalNAc(b1-4)]GlcNAc
# Procedure, shortened: as §1
# [18] = molecular target: Fuc(a1-3)[GalNAc(b1-4)]GlcNAc6S
# Procedure, shortened: as §1
# [19] = molecular target: Fuc(a1-4)GlcNAc
# Procedure, shortened: as §1
# [20] = molecular target: Fuc(b1-3)GlcNAc
# Procedure, shortened: as §1
# [21] = molecular target: Gal(a1-2)Gal
# Procedure, shortened: as §1
# [22] = molecular target: Gal(a1-3)Gal
# Procedure, shortened: as §1
# [23] = molecular target: Gal(a1-3)Gal(b1-3)GlcNAc
# Procedure, shortened: as §1
# [24] = molecular target: Gal(a1-3)Gal(b1-3)GlcNAc(b1-2)Man
# Procedure, shortened: as §1
# [25] = molecular target: Gal(a1-3)Gal(b1-3)GlcNAc(b1-2)Man(a1-3)[Gal(a1-3)Gal(b1-3)GlcNAc(b1-2)Man(a1-6)]Man(b1-4)GlcNAc(b1-4)GlcNAc
# Procedure, shortened: as §1
# [26] = molecular target: Gal(a1-3)Gal(b1-3)GlcNAc(b1-3)GalNAc
# Procedure, shortened: as §1
# [27] = molecular target: Gal(a1-3)Gal(b1-3)GlcNAc(b1-6)GalNAc
# Procedure, shortened: as §1
# [28] = molecular target: Gal(a1-3)Gal(b1-3)[Fuc(a1-4)]GlcNAc(b1-2)Man(a1-3)[Gal(a1-3)Gal(b1-3)[Fuc(a1-4)]GlcNAc(b1-2)Man(a1-6)]Man(b1-4)GlcNAc(b1-4)GlcNAc
# Procedure, shortened: as §1
# [29] = molecular target: Gal(a1-3)Gal(b1-4)Glc
# Procedure, shortened: as §1
# [30] = molecular target: Gal(a1-3)Gal(b1-4)GlcNAc
# Procedure, shortened: as §1
# [31] = molecular target: Gal(a1-3)Gal(b1-4)GlcNAc(b1-2)Man
# Procedure, shortened: as §1
# [32] = molecular target: Gal(a1-3)Gal(b1-4)GlcNAc(b1-2)Man(a1-3)[Gal(a1-3)Gal(b1-4)GlcNAc(b1-2)Man(a1-6)]Man(b1-4)GlcNAc(b1-4)GlcNAc
# Procedure, shortened: as §1
# [33] = molecular target: Gal(a1-3)Gal(b1-4)GlcNAc(b1-3)GalNAc
# Procedure, shortened: as §1
# [34] = molecular target: Gal(a1-3)Gal(b1-4)GlcNAc(b1-6)GalNAc
# Procedure, shortened: as §1
# [35] = molecular target: Gal(a1-3)Gal(b1-4)[Fuc(a1-3)]GlcNAc
# Procedure, shortened: as §1
# [36] = molecular target: Gal(a1-3)Gal(b1-4)[Fuc(a1-3)]GlcNAc(b1-2)Man(a1-3)[Gal(a1-3)Gal(b1-4)[Fuc(a1-3)]GlcNAc(b1-2)Man(a1-6)]Man(b1-4)GlcNAc(b1-4)GlcNAc
# Procedure, shortened: as §1
# [37] = molecular target: Gal(a1-3)GalNAc
# Procedure, shortened: as §1
# [38] = molecular target: Gal(a1-3)[Gal(a1-4)]Gal(b1-4)GlcNAc
# Procedure, shortened: as §1
# [39] = molecular target: Gal(a1-4)Gal(b1-3)GlcNAc(b1-2)Man(a1-3)[Gal(a1-4)Gal(b1-3)GlcNAc(b1-2)Man(a1-6)]Man(b1-4)GlcNAc(b1-4)GlcNAc
# Procedure, shortened: as §1
# [40] = molecular target: Gal(a1-4)Gal(b1-4)Glc
# Procedure, shortened: as §1
# [41] = molecular target: Gal(a1-4)Gal(b1-4)GlcNAc
# Procedure, shortened: as §1
# [42] = molecular target: Gal(a1-4)Gal(b1-4)GlcNAc(b1-2)Man(a1-3)[Gal(a1-4)Gal(b1-4)GlcNAc(b1-2)Man(a1-6)]Man(b1-4)GlcNAc(b1-4)GlcNAc
# Procedure, shortened: as §1
# [43] = molecular target: Gal(a1-4)Gal(b1-4)GlcNAc(b1-3)Gal(b1-4)Glc
# Procedure, shortened: as §1
# [44] = molecular target: Gal(a1-4)GlcNAc
# Procedure, shortened: as §1
# [45] = molecular target: Gal(a1-6)Glc
# Procedure, shortened: as §1
binder,measurement,setting,value
B1,glycan array binding signal (z-score),[1],-0.164
same,glycan array binding signal (z-score),[2],-0.007
same,glycan array binding signal (z-score),[3],-0.191
same,glycan array binding signal (z-score),[4],-0.18
same,glycan array binding signal (z-score),[5],0.601
same,glycan array binding signal (z-score),[6],0.036
same,glycan array binding signal (z-score),[7],-0.114
same,glycan array binding signal (z-score),[8],-0.148
same,glycan array binding signal (z-score),[9],-0.235
same,glycan array binding signal (z-score),[10],-0.069
same,glycan array binding signal (z-score),[11],0.168
same,glycan array binding signal (z-score),[12],-0.141
same,glycan array binding signal (z-score),[13],0.042
same,glycan array binding signal (z-score),[14],-0.073
same,glycan array binding signal (z-score),[15],-0.253
same,glycan array binding signal (z-score),[16],-0.222
same,glycan array binding signal (z-score),[17],-0.147
same,glycan array binding signal (z-score),[18],-0.262
same,glycan array binding signal (z-score),[19],-0.174
same,glycan array binding signal (z-score),[20],-0.103
same,glycan array binding signal (z-score),[21],-0.182
same,glycan array binding signal (z-score),[22],-0.404
same,glycan array binding signal (z-score),[23],-0.109
same,glycan array binding signal (z-score),[24],-0.279
same,glycan array binding signal (z-score),[25],0.649
same,glycan array binding signal (z-score),[26],-0.257
same,glycan array binding signal (z-score),[27],-0.081
same,glycan array binding signal (z-score),[28],0.012
same,glycan array binding signal (z-score),[29],-0.271
same,glycan array binding signal (z-score),[30],-0.249
same,glycan array binding signal (z-score),[31],-0.175
same,glycan array binding signal (z-score),[32],0.129
same,glycan array binding signal (z-score),[33],-0.244
same,glycan array binding signal (z-score),[34],-0.195
same,glycan array binding signal (z-score),[35],-0.212
same,glycan array binding signal (z-score),[36],1.46
same,glycan array binding signal (z-score),[37],-0.108
same,glycan array binding signal (z-score),[38],-0.119
same,glycan array binding signal (z-score),[39],-0.281
same,glycan array binding signal (z-score),[40],-0.067
same,glycan array binding signal (z-score),[41],-0.155
same,glycan array binding signal (z-score),[42],-0.203
same,glycan array binding signal (z-score),[43],-0.245
same,glycan array binding signal (z-score),[44],-0.152
same,glycan array binding signal (z-score),[45],-0.226
